The campaign covered roughly 48,000 compounds. About 550 (1.1%) were called active. Another 4% or so got no clear call; they are omitted. Rule as the data show it: active = potency below about 15 µM; inconclusive = mostly about 16 µM to 33 µM; inactive = weaker than that. This is one part of the list.
biological target: Lysosomal acid glucosylceramidase (Homo sapiens) (UniProt P04062); experiment: Glucocerebrosidase; details: purified enzyme, resorufin glucoside fluorescence (screen aimed at inhibitors), 20 min;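 also: the screen sought inhibitors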
Chain of UniProt P04062 (P04062 whole entry, looked up): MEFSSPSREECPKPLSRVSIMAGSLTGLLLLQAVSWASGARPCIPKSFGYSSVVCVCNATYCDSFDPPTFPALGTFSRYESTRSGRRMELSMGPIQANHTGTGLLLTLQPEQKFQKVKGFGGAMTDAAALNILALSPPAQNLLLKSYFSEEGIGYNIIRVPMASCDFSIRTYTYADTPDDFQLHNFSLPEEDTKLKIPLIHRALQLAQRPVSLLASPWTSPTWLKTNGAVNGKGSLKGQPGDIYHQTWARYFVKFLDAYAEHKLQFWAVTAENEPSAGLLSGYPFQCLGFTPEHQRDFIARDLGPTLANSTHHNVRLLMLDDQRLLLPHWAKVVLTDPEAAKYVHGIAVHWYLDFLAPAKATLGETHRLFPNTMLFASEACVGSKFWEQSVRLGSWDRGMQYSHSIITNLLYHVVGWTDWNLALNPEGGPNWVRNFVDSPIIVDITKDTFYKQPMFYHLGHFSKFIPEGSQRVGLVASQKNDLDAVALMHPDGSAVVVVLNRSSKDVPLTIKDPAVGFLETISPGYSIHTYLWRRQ
In short: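 Normal human glucocerebrosidase (0.2 nM final) was assayed with resorufin β-D-glucopyranoside (30 uM final) in 50mM citric acid/KH2PO4, 10mM sodium taurocholate, 0.01% tween-20, pH 5.9. Compounds were titrated; fluorescence (Ex 548, Em 600) read after 20 min at RT.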
Potency is read from the fitted curve at half-maximal effect.

**Q.** How did the Potency turn out when `c1cc(-c2nnc3n2CCC3)[nH]n1` was run?
**A.** inactive: > 76.9 µM

**Q.** With `O=C(CCn1c(=S)[nH]c2cc3c(cc2c1=O)OCO3)N1CCN(c2ccccn2)CC1` as the compound, how does the Potency read?
**A.** inactive: > 76.9 µM

**Q.** How did the Potency turn out when `CCOC(=O)c1ccc(CC(=O)c2oc3cc(O)ccc3c2C)o1` was run?
**A.** inactive: > 76.9 µM

**Q.** `CCOC(=O)C1CCN(C(=O)COC(=O)c2ccc(Br)o2)CC1` was tested. Which Potency did it give?
**A.** inactive: > 76.9 µM

**Q.** With `Cc1cc(C)nc(SCC(=O)NC2=NC(=O)C(C)S2)n1` (stereo unspecified) as the compound, how does the Potency read?
**A.** inactive: > 76.9 µM

**Q.** `COc1ccc(NC(=O)CSc2nc3ccccc3c(=O)n2-c2ccc3c(c2)OCO3)c(OC)c1` was tested. Which Potency did it give?
**A.** inactive: > 76.9 µM

**Q.** With `CCCCN(CCCC)S(=O)(=O)c1ccc(C(=O)Nc2nnc(CSC)o2)cc1` as the compound, how does the Potency read?
**A.** inactive: > 76.9 µM

**Q.** With `CCOC(=O)C1=C(C)NC2=C(C(=O)CC(c3ccc(OC)c(OC)c3)C2)C1c1ccc(C)o1` (stereo unspecified) as the compound, how does the Potency read?
**A.** inactive: > 76.9 µM

**Q.** `Cc1coc(NC(=O)CSc2nc(-c3ccncc3)cc(C(F)(F)F)c2C#N)n1` was tested. Which Potency did it give?
**A.** inactive: > 76.9 µM

**Q.** With `CC(C)c1nnc(NC(=O)c2c(O)c3cccc4c3n(c2=O)CCC4)s1` as the compound, how does the Potency read?
**A.** inactive: > 76.9 µM

**Q.** For `Cc1csc(SCc2c(C(=O)O)oc3ccccc23)n1`, which Potency is on record?
**A.** inactive: > 76.9 µM

**Q.** With `CCOc1cccc(-c2nnc3sc(COc4ccc(Cl)cc4)nn23)c1` as the compound, how does the Potency read?
**A.** inactive: > 76.9 µM

**Q.** Which Potency does the source give for `CCOC(=O)C1CCCN(CC(=O)Nc2c(C(=O)OC)[nH]c3ccc(Cl)cc23)C1` (stereo unspecified) here?
**A.** inactive: > 76.9 µM

**Q.** With `CCCC(=O)Nc1ccc(N2CCN(C(=O)CCC)CC2)cc1` as the compound, how does the Potency read?
**A.** inactive: > 76.9 µM

**Q.** For `COc1ccc(OC)c(NC(=O)Cn2cc(C#N)c3ccccc32)c1`, which Potency is on record?
**A.** inactive: > 76.9 µM

**Q.** `C=CCOc1ccccc1CNn1nnnc1N` was tested. Which Potency did it give?
**A.** inactive: > 76.9 µM

**Q.** How did the Potency turn out when `CCCCCn1c(CCNC(=O)c2cccs2)nc2ccccc21` was run?
**A.** inactive: > 76.9 µM

**Q.** For `Cc1cc(C(=O)CSCc2nnc3n(CCC(C)C)c(=O)c4ccccc4n23)c(C)n1C`, which Potency is on record?
**A.** inactive: > 76.9 µM

**Q.** How did the Potency turn out when `CCOC(=O)CN1C(=O)C(O)(c2c(C)[nH]c3ccccc23)c2ccccc21` (stereo unspecified) was run?
**A.** inactive: > 76.9 µM

**Q.** Which Potency does the source give for `Cn1c(NCc2ccccc2)cc(=O)n(C)c1=O` here?
**A.** inactive: > 76.9 µM

**Q.** Which Potency does the source give for `N#CCSc1nnc(C2CCCCC2)n1-c1ccccc1` here?
**A.** inactive: > 76.9 µM

**Q.** Which Potency does the source give for `COc1ccc(OC)c(C2C3=C(CCCC3=O)Nc3nc4ccccc4n32)c1` (stereo unspecified) here?
**A.** inactive: > 76.9 µM

**Q.** With `c1ccc2c(-c3nc(C4CCCCC4)no3)cc(-c3ccncc3)nc2c1` as the compound, how does the Potency read?
**A.** inactive: > 76.9 µM

**Q.** Which Potency does the source give for `COCCCN1C(=O)C(=O)/C(=C(/O)c2ccc(OCC(C)C)cc2)C1c1cccnc1` (stereo unspecified) here?
**A.** inactive: > 76.9 µM

**Q.** With `O=C(CCc1ccccc1)Nc1ccc(Cl)cn1` as the compound, how does the Potency read?
**A.** inactive: > 76.9 µM

**Q.** For `Cn1c(=O)[nH]c(=O)c2c1nc(Br)n2CC(O)COCc1ccccc1` (stereo unspecified), which Potency is on record?
**A.** inactive: > 76.9 µM

**Q.** With `CCN(CC)S(=O)(=O)c1ccc(F)c(C(=O)NCCCN2CCOCC2)c1` as the compound, how does the Potency read?
**A.** inactive: > 76.9 µM

**Q.** For `Cn1nccc1C(=O)OCC(=O)Nc1nc(-c2ccccc2)cs1`, which Potency is on record?
**A.** inactive: > 76.9 µM

**Q.** With `O=C(CCC1CCCC1)N1CCN(C(=O)C2CC2)CC1` as the compound, how does the Potency read?
**A.** inactive: > 76.9 µM

**Q.** How did the Potency turn out when `O=C(O)c1cccc(S(=O)(=O)NCc2cccs2)c1` was run?
**A.** inactive: > 76.9 µM

**Q.** `CC(C)CCN(C(=O)CNC(=O)c1ccco1)C(C(=O)NC1CCCCC1)c1ccco1` (stereo unspecified) was tested. Which Potency did it give?
**A.** inactive: > 76.9 µM

**Q.** Which Potency does the source give for `Cc1ccccc1Cn1ccc(NC(=O)CCSc2nc(-c3ccco3)cc(C(F)(F)F)n2)n1` here?
**A.** inactive: > 76.9 µM

**Q.** Which Potency does the source give for `CCC(C)(C)n1nnnc1C(C(C)C)N(CCCO)Cc1cc2cc(C)ccc2[nH]c1=O` (stereo unspecified) here?
**A.** inactive: > 76.9 µM

**Q.** Which Potency does the source give for `O=C(CCCC(=O)N(CC(=O)NC1CCCC1)Cc1ccccc1)Nc1ccccn1` here?
**A.** inactive: > 76.9 µM

**Q.** Which Potency does the source give for `CCCN1CN(Cc2ccco2)c2nc3ccccc3n2C1` here?
**A.** inactive: > 76.9 µM

**Q.** How did the Potency turn out when `COCCNC(=O)Cn1nc(C(F)(F)F)c(Cl)c1C` was run?
**A.** inactive: > 76.9 µM

**Q.** How did the Potency turn out when `CCOC(=O)N1CCN(C2=CC(=O)OC23CCCCC3)CC1` was run?
**A.** inactive: > 76.9 µM

**Q.** How did the Potency turn out when `CCn1c(SCC(=O)Nc2ccc(C(=O)OC)cc2)nnc1-c1cccs1` was run?
**A.** inactive: > 76.9 µM

**Q.** For `O=C(NCCN1CCN(Cc2ccccc2)CC1)C1CC(=O)N(C2CCCC2)C1` (stereo unspecified), which Potency is on record?
**A.** inactive: > 76.9 µM

**Q.** `CSCCC(NC(=O)c1occc1C)C(=O)O` (stereo unspecified) was tested. Which Potency did it give?
**A.** inactive: > 76.9 µM

**Q.** `COc1cccc(-c2nnc(SCc3ccc(C#N)cc3)n2Cc2ccco2)c1` was tested. Which Potency did it give?
**A.** inactive: > 76.9 µM

**Q.** Which Potency does the source give for `COc1ccccc1OCc1ccc(C(=O)Nc2ccncc2)o1` here?
**A.** active: 13.2 µM

**Q.** For `O=C(c1ccc2c(c1)OCCO2)N(c1ccccn1)C1CCCCC1`, which Potency is on record?
**A.** inactive: > 76.9 µM

**Q.** For `CCN(CC)CCCNC(=O)N[C@@H](Cc1ccccc1)C(=O)O`, which Potency is on record?
**A.** inactive: > 76.9 µM

**Q.** For `CCOC(=O)c1ccc(CSc2nnc(N)s2)cc1`, which Potency is on record?
**A.** inactive: > 76.9 µM

**Q.** Which Potency does the source give for `COc1cccc(NC(=O)NC2(C(F)(F)F)Oc3ccccc3O2)c1` here?
**A.** inactive: > 76.9 µM

**Q.** How did the Potency turn out when `O=C(NCC(=O)N(CC1CCCO1)C(C(=O)NC1CCCC1)c1ccc(F)cc1)c1ccco1` (stereo unspecified) was run?
**A.** inactive: > 76.9 µM

**Q.** With `O=C(c1ccc(F)cc1F)N(Cc1ccccn1)Cc1ccco1` as the compound, how does the Potency read?
**A.** inactive: > 76.9 µM

**Q.** Which Potency does the source give for `O=C(CN1C(=O)CSC1=O)Nc1ccccc1N1CCOCC1` here?
**A.** inactive: > 76.9 µM

**Q.** Which Potency does the source give for `CC(=O)c1c(C)[nH]c(C(=O)Nc2ccc3c(c2)OCCO3)c1C` here?
**A.** inactive: > 76.9 µM

**Q.** For `CCN(Cc1cc2ccccc2[nH]c1=O)S(=O)(=O)c1ccccc1`, which Potency is on record?
**A.** inactive: > 76.9 µM

**Q.** `CC(C)C(c1nnnn1CC1CCCO1)N1CCN(Cc2ccc3c(c2)OCO3)CC1` (stereo unspecified) was tested. Which Potency did it give?
**A.** inactive: > 76.9 µM

**Q.** For `Cc1ccc(N2CCN(CCc3nc4cc(NS(C)(=O)=O)ccc4n3C)CC2)cc1`, which Potency is on record?
**A.** inactive: > 76.9 µM

**Q.** With `COc1ccc(CCNC(=O)CCSc2nc(-c3ccco3)cc(C(F)(F)F)n2)cc1OC` as the compound, how does the Potency read?
**A.** inactive: > 76.9 µM

**Q.** For `Cc1ccc(NC(=O)CS(=O)CC(=O)NCC2CCCO2)cc1` (stereo unspecified), which Potency is on record?
**A.** inactive: > 76.9 µM

**Q.** For `CCc1ccc2c(CN3CCN(S(=O)(=O)c4ccc5c(c4)OCCO5)CC3)cc(=O)oc2c1`, which Potency is on record?
**A.** inactive: > 76.9 µM

— PubChem BioAssay AID360 (National Center for Advancing Translational Sciences (NCATS), 2006)
